# Source: the supplement of paper PMC4723716
# ± gives the uncertainty stated by the source. The full ranking holds about 9,900 compounds; the median of “viability index relative to DMSO control” is about 1, and the lowest 2% start at about 0.85. The list shows a part of the results.
# System: Plasmodium falciparum NF54 stage V gametocytes
# Experiment: viability index relative to DMSO control (fraction); higher = less gametocyte killing
# Settings: 2.5 µM, library set: Broad Institute DOS, incubation time: 72 h
# Method in brief: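 Stage V gametocytes of P. falciparum NF54 were held in serum-free screening medium at 0.75% gametocytemia and 1.25% hematocrit, 10 µl per well of a 1,536-well plate, and exposed to compound at 2.5 µM for 72 hr at 37°C under low oxygen. A 3 µl mix of 2.5 µM MitoTracker Red CMXRos with 0.13% saponin was then added for one to two hours, after which one field per well was imaged and red particles of 20–70 µm2 were counted. The viability index equals this count divided by the plate mean from wells given solvent alone.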
row,Compound,viability index
1,CN1C(=O)c2cc(NC(=O)Nc3ccccc3Cl)ccc2OC[C@H]2O[C@H](CC(=O)NCCCN3CCOCC3)CC[C@H]21,1.16 ± 0.066
2,O=C(NCCN1CCCC1)[C@@H]1[C@@H](CO)[C@@H]2Cn3c(cccc3=O)[C@@H]2N1Cc1ccccn1,1.04 ± 0.045
3,CCCNC(=O)N1[C@H](CNC(=O)c2cccc(F)c2)[C@@H](c2ccccc2)[C@@H]1CO,0.9577 ± 0.0012
4,CO[C@H]1CN(C)C(=O)c2cc(NC(=O)Nc3c(C)noc3C)ccc2OC[C@@H](C)NC[C@@H]1C,1.04 ± 0.062
5,CCC(=O)Nc1ccc2c(c1)C(=O)N(C)C[C@@H](OC)[C@H](C)CN(C(=O)Cc1cccnc1)[C@@H](C)CO2,1.13 ± 0.043
6,C[C@@H]1CCCCO[C@@H](CN(C)C(=O)CCCN(C)C)[C@H](C)CN([C@@H](C)CO)C(=O)c2cc(NC(=O)Nc3ccc4c(c3)OCO4)ccc2O1,1.15 ± 0.03
7,COc1cccc(C#Cc2ccc([C@H]3[C@@H](CO)N4C(=O)CN(C(=O)Cc5cccnc5)C[C@@H]34)cc2)c1,1.03 ± 0.1
8,O=C(NCC[C@@H]1CC[C@@H](NC(=O)c2ccccc2F)[C@@H](CO)O1)c1cnccn1,0.976 ± 0.13
9,C[C@@H]1C(=O)N[C@@H](c2ccccc2)C/C=C/C[C@H](C)Oc2ccccc2C(=O)N1C.C[C@@H]1C(=O)N[C@@H](c2ccccc2)C/C=C\C[C@H](C)Oc2ccccc2C(=O)N1C,1.06 ± 0.06
10,COc1ccc(CN2C[C@@H](O)COC[C@H]3O[C@@H](CC(=O)N(C)C)CC[C@@H]32)cc1,1.068 ± 0.01
11,O=C1CNC[C@@H]2[C@@H](c3ccc(C#CC4CCCCC4)cc3)[C@H](CO)N12,1.055 ± 0.0017
12,C[C@@H]1CN([C@H](C)CO)C(=O)c2c(c3ccccc3n2C)-c2ccccc2CO[C@@H]1CN(C)C(=O)Nc1ccc2c(c1)OCO2,0.979 ± 0.045
13,C[C@@H]1CN([C@H](C)CO)C(=O)c2cc(NC(=O)NC3CCCCC3)ccc2O[C@@H]1CN(C)S(C)(=O)=O,1.036 ± 0.0089
14,CC(=O)N1[C@@H]2c3ccc(-c4cncnc4)c(=O)n3C[C@@H]2[C@@H](CO)[C@@H]1C(=O)NCc1ccccc1Cl,0.984 ± 0.016
15,COc1ccccc1C(=O)N1C[C@H]2[C@@H](c3ccccc31)[C@H](CO)N2C(=O)Cc1ccccc1,1.04 ± 0.12
16,N#C[C@H]1[C@H](c2ccccc2)[C@H](CO)N1C(=O)c1ccccc1F,1.04 ± 0.034
17,COc1ccc(NC(=O)N2CC[C@@]3(CC2)CN([C@H](CO)c2[nH]c4cc(OC)ccc4c32)C(=O)CN2CCOCC2)cc1,0.973 ± 0.068
18,COCC(=O)N1CC[C@@]2(CC1)CN([C@@H](CO)c1c2c2ccc(OC)cc2n1C)C(=O)c1ccccn1,1.02 ± 0.1
19,CCCNC(=O)N1C[C@]2(CN(C2)C(=O)c2cnccn2)c2c([nH]c3cc(OC)ccc23)[C@@H]1CO,0.9806 ± 0.0024
20,CN1C(=O)c2cc(NC(=O)Nc3ccccc3Cl)ccc2OC[C@H]2O[C@@H](CC(=O)O)CC[C@@H]21,0.897 ± 0.14
21,N#C[C@@H]1N[C@H](CO)[C@@H]1c1ccc(-c2cccc(F)c2)cc1,1.05 ± 0.086
22,COC(=O)c1ccc(CN2CC(=O)N3[C@@H](CO)[C@@H](c4ccc(-c5cccnc5)cc4)[C@@H]3C2)cc1,1.04 ± 0.024
23,CC(C)(C)[S@@](=O)N1Cc2cc(C(=O)NC3CCC3)nc(-c3cccc(-c4ccccc4F)c3)c2[C@H]1CCO,1.02 ± 0.012

row,Compound,viability index
1,CCCC(=O)N1C[C@]2(CCN(CC2)S(=O)(=O)CC)c2c([C@@H]1CO)n(C)c1cc(OC)ccc21,1.04 ± 0.029
2,C[C@H]1CN([C@@H](C)CO)C(=O)c2cc(NS(=O)(=O)c3cn(C)cn3)ccc2O[C@@H]1CN(C)S(=O)(=O)c1ccc(F)cc1,0.974 ± 0.018
3,COc1ccc2c3c([nH]c2c1)[C@@H](CO)N(C[C@]31CCN(CC1)C(=O)Nc1ccc2OCOc2c1)C(=O)Nc1ccc(F)cc1,0.998 ± 0.019
4,C[C@H]1CN([C@@H](C)CO)C(=O)CCCn2nncc2CO[C@@H]1CN(C)C(=O)c1ccc2ccn(C)c2c1,1.09 ± 0.11
5,CS(=O)(=O)N1C[C@@H](O)COC[C@@H]2O[C@H](CC(=O)NCc3ccccc3)CC[C@H]21,0.994 ± 0.022
6,COC(=O)C[C@@H]1C[C@@H]2c3cc(NC(=O)C4CCOCC4)ccc3O[C@@H]2[C@@H](CO)O1,1.099 ± 0.0062
7,CNC[C@H]1Oc2ccc(N)cc2CC(=O)N([C@@H](C)CO)C[C@H]1C,0.9709 ± 0.0063
8,COc1ccc2c3c([nH]c2c1)[C@@H](CO)NC[C@]31CN(C1)S(=O)(=O)c1cccc(C)c1,1.08 ± 0.021
9,CN1C(=O)c2cc(NC(=O)NCc3ccccc3)ccc2OC[C@@H]2O[C@H](CC(=O)NCC3CCCCC3)CC[C@H]21,1.05 ± 0.02
10,COCC(=O)N1[C@@H]2CNc3ccccc3[C@@H]2[C@@H]1CO,1.02 ± 0.11
11,Cc1cccc(S(=O)(=O)N2C[C@@H]3[C@H](c4ccccc42)[C@@H](CO)N3C(=O)c2ccccc2)c1,1.03 ± 0.12
12,CNC[C@H]1OCCCC[C@@H](C)Oc2ccc(NC(=O)Nc3ccc(OC)cc3)cc2C(=O)N([C@@H](C)CO)C[C@@H]1C,0.965 ± 0.12
13,CCC(=O)Nc1ccc2c(c1)C(=O)N(C)C[C@@H](OC)[C@H](C)CN(C(=O)NC1CCCCC1)[C@H](C)CO2,1.02 ± 0.049
14,CNC[C@H]1Oc2ccc(NS(=O)(=O)c3ccc(OC)cc3)cc2C(=O)N([C@@H](C)CO)C[C@H]1C,1.03 ± 0.085
15,O=C(C[C@H]1CC[C@@H]2[C@H](COC[C@@H](O)CN2CC2CCOCC2)O1)NCc1ccc(Cl)cc1,1.07 ± 0.052
16,O=C1CNC[C@H]2[C@H](c3ccc(-c4ccccc4F)cc3)[C@@H](CO)N12,1.04 ± 0.068
17,CO[C@@H]1CC[C@H]2CCOc3c(C#N)cccc3C(=O)N(C)C[C@@H](OC)[C@@H](C)C(=O)N(C)C[C@H]1O2,1.09 ± 0.043
18,C[C@H](CO)N1C[C@H](C)[C@H](CN(C)Cc2ccc(C(=O)Nc3ccccc3N)cc2)OCc2cnnn2CCCC1=O,0.953 ± 0.042
19,OC[C@@H]1[C@H](c2ccccc2)C2(CN(Cc3nccs3)C2)N1CC1CCOCC1,1.074 ± 0.0018
20,C[C@@H]1CCCCO[C@@H](CN(C)CC2CCCCC2)[C@@H](C)CN([C@H](C)CO)C(=O)c2cc(NS(C)(=O)=O)ccc2O1,1.17 ± 0.11
21,O=C(Nc1ccc(F)cc1)N1C[C@@H]2[C@H](c3ccccc31)[C@H](CO)N2Cc1ccccc1Cl,1.01 ± 0.02
22,C[C@@H]1CCCCO[C@@H](CN(C)C(=O)C2CCCCC2)[C@H](C)CN([C@H](C)CO)C(=O)c2cc(NS(=O)(=O)c3ccccc3)ccc2O1,1.02 ± 0.071
23,C[C@H](CO)N1C[C@H](C)[C@@H](CN(C)Cc2ccc3c(c2)OCO3)OCCCC[C@H](C)Oc2ccc(NS(=O)(=O)c3cn(C)cn3)cc2C1=O,1.09 ± 0.039

row,Compound,viability index
1,C[C@@H]1CN([C@H](C)CO)C(=O)c2cc(NC(=O)Nc3cccc4ccccc34)ccc2O[C@@H](C)CCCCO[C@H]1CN(C)Cc1ccc(C(F)(F)F)cc1,1.07 ± 0.059
2,C/C=C/c1ccc([C@@H]2[C@H](CO)N(C(=O)c3ccccn3)C23CN(CCC(F)(F)F)C3)cc1,0.998 ± 0.032
3,N#C[C@@H]1[C@@H](c2ccccc2)[C@@H](CO)N1C(=O)c1cc(Cl)cc(Cl)c1,1.1 ± 0.042
4,COc1ccc(CN2[C@@H](CO)[C@@H]3c4ccccc4N(C(=O)NC(C)C)C[C@@H]32)cc1,1.13 ± 0.11
5,O=C(Nc1ccc2c(c1)[C@H]1C[C@H](CC(=O)N3CCOCC3)O[C@@H](CO)[C@H]1O2)Nc1ccccc1F,1.1 ± 0.013
6,CCCN1C[C@@H](C)[C@@H](OC)CN(C)C(=O)c2cc(NC(=O)C3CCC3)ccc2OC[C@H]1C,1.05 ± 0.06
7,O=C(c1ccccc1)N1CC(=O)N2[C@@H](CO)[C@H](c3ccc(-c4ccccc4)cc3)[C@@H]2C1,1.02 ± 0.037
8,Cc1noc(C)c1NC(=O)N(C)C[C@@H]1OCc2cn(nn2)CCCC(=O)N([C@@H](C)CO)C[C@H]1C,1.01 ± 0.047
9,Cc1ccccc1S(=O)(=O)N1CCCCN2[C@H](C1)[C@H](c1ccc(C#CCN(C)C)cc1)[C@@H]2CO,1.078 ± 0.0075
10,O=C(CC1CC1)N1CC2(C1)[C@@H](c1ccccc1)[C@@H](CO)N2C(=O)c1ccccn1,1.11 ± 0.03
11,COc1cccc(CNC(=O)C[C@@H]2CC[C@H]3[C@@H](COc4ccc(NC(=O)c5cccs5)cc4C(=O)N3C)O2)c1,1.075 ± 0.0063
12,C[C@@H]1CN([C@@H](C)CO)C(=O)c2ccccc2-c2ccccc2CO[C@H]1CN(C)C(=O)Nc1cccc(C(F)(F)F)c1,0.993 ± 0.038
13,CO[C@@H](CN(C)Cc1ccc2c(c1)OCO2)[C@H](C)CN(C(=O)Nc1ccc(F)cc1)[C@H](C)CO,1.04 ± 0.037
14,O=C(C[C@H]1CC[C@@H]2[C@H](COC[C@H](O)CN2C(=O)c2cnccn2)O1)NCc1ccc(Cl)cc1,1.04 ± 0.056
15,COCC#Cc1ccc([C@@H]2[C@@H](CO)N3CCCCN(Cc4cccnc4)C[C@H]23)cc1,0.989 ± 0.055
16,COc1ccc(S(=O)(=O)N2C[C@H](O)COC[C@H]3O[C@H](CC(=O)N[C@@H]4CCN(Cc5ccccc5)C4)CC[C@@H]32)cc1,1.06 ± 0.12
17,C[C@H]1CN([C@@H](C)CO)C(=O)c2ccccc2-c2ccccc2CO[C@@H]1CN(C)C(=O)NC1CCCCC1,0.985 ± 0.073
18,CO[C@@H](CN(C)S(=O)(=O)c1cn(C)cn1)[C@@H](C)CN(C(=O)Nc1ccc(C(F)(F)F)cc1)[C@@H](C)CO,1.04 ± 0.094
19,CCCN1C[C@@H](C)[C@H](OC)CN(C)C(=O)c2cc(NC(=O)Nc3cccc(F)c3)ccc2OC[C@@H]1C,1.05 ± 0.053
20,O=C(C[C@H]1CC[C@@H]2[C@H](COC[C@@H](O)CN2Cc2nccs2)O1)N1CCC(Cc2ccccc2)CC1,1.05 ± 0.015
21,CC(C)NC(=O)N(C)C[C@@H]1Oc2ccc(NC(=O)c3ccncc3)cc2C(=O)N([C@@H](C)CO)C[C@@H]1C,0.997 ± 0.14
22,C[C@H](CO)N1C[C@H](C)[C@@H](CN(C)S(C)(=O)=O)Oc2cc(-c3ccncc3)ccc2S1(=O)=O,1.15 ± 0.067
23,CO[C@H](C(=O)N(C)C[C@@H]1OCc2ccccc2-c2ccccc2C(=O)N([C@@H](C)CO)C[C@@H]1C)c1ccccc1,1.03 ± 0.082
